Assay results taken from PubChem BioAssay AID504706 (National Center for Advancing Translational Sciences (NCATS), 2011).
The whole screen tested about 320,000 compounds, of which about 200 (0.062%) were called active. Inconclusive results, whose numbers are uncertain, are shown with a selection of clear calls. The call rests on the fitted dose curve; in most records, active means well fitted activation curve with a large enough effect; inconclusive means small, poorly fitted or top-dose-only effect; inactive means no such curve, though single readings can be large or run the other way. Potencies of inconclusive entries are left out as doubtful fits.

test: qHTS assay for re-activators of p53 using a Luc reporter; details: H1299 p53-A138V BP100-luciferase reporter, luminescence, 24 h; series mostly up to 92.2 µM; further: nearly all actives have a fitted effect of over 45% in size
Outline: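 H1299 (p53-null), stable ts p53-A138V + BP100-Luc; 1000 cells/well, Opti-MEM/10% FBS; cpd 4 pt, 1:5; 24 h, 37 deg C, 5% CO2; detection reagent 10 min RT; luminescence.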
Potency means the concentration at half of the fitted maximal effect; tags describe the fitted curve by direction and shape.

SMILES	Potency
O=C(N/N=C\c1ccc2c(c1)OCO2)c1ccco1	inconclusive [activator, partial curve, poor fit]
CC(C)[C@H](NC(=O)CCCn1nnc2ccccc2c1=O)C(=O)O	inactive
Cc1ccc(Nc2cc(-n3cccn3)ncn2)c(C)c1	inconclusive [activator, full curve, poor fit]
CCOC(=O)C1CCN(C(=O)CCC(=O)NCCc2ccc(Cl)cc2)CC1	inconclusive [activator, partial curve, poor fit]
Oc1ccccc1/C=N/NC(=S)NC1CC2CCC1C2 (stereo not given)	inactive
CCOc1ccc(/C=N/NC(=O)c2csc(C)c2C)c(OCC)c1	inactive
CC(OC(=O)c1ccccc1Br)C(=O)Nc1nc(-c2cccc([N+](=O)[O-])c2)cs1 (stereo not given)	inactive
O=C(COc1ccc(Br)cc1Cl)NC1CCCCC1	inconclusive [activator, partial curve, poor fit]
COc1ccc(/C=N/NC(=O)c2cc3cc(OC)c(OC)cc3[nH]2)cc1	inactive
O=C(CCCN1C(=O)/C(=C/c2ccco2)SC1=S)Nc1ccccc1	inconclusive [activator, partial curve, poor fit]
CC(=C/c1ccc(C(C)C)cc1)/C=N/NC(=O)CSc1ccccn1	inconclusive [activator, full curve, poor fit]
Cc1cc(C(=O)COc2ccc(Br)cc2F)c(C)n1C1CC1	inconclusive [activator, partial curve, poor fit]
COC(=O)CC1=C(C(=O)OC)C(c2ccncc2)C(C#N)=C(N)O1 (stereo not given)	inconclusive [activator, single point]
CSc1nc(N(C)C)nc(N(C#N)CCOC(C)=O)n1	inconclusive [activator, single point]
CN(C(=O)c1ccccn1)c1nnc(-c2cccnc2)s1	inconclusive [activator, partial curve, poor fit]
COC(=O)c1sccc1N/N=C/c1cccc(Oc2ccccc2)c1	inconclusive [activator, partial curve, poor fit]
COCC1CCN(C(=O)C2CCC(=O)N(C3CCCC3)C2)CC1 (stereo not given)	inconclusive [activator, single point]
O=C(NNc1ccccc1[N+](=O)[O-])Nc1ccc(Cl)c(Cl)c1	inconclusive [activator, single point]
Cc1cc(C(=O)CSc2nnnn2-c2ccccc2)c(C)n1CC1CCCO1 (stereo not given)	inconclusive [activator, full curve, poor fit]
O=[N+]([O-])c1cccc(CSc2cccc[n+]2[O-])c1	inactive
Cn1c(=O)n(Cc2ccccc2)c2ccccc21	inactive
CC(C)COc1ncnc2c1sc1nc3c(cc12)COC(C)(C)C3	inactive
O=c1oc(-c2ccc(O)c(O)c2)cc2cc(O)cc(O)c12	inconclusive [activator, full curve, poor fit]

SMILES	Potency
Cc1cc(NC(=O)c2cnn3cccnc23)no1	inconclusive [activator, full curve, poor fit]
CCN(CC)c1ccc2nc3ccc(N)cc3[n+](-c3ccccc3)c2c1	inactive
FC(F)(F)c1cccc(N2CCN(C(=S)NC3CCCC3)CC2)c1	inactive
CN1C(=O)CSc2ccc(NC(=O)Nc3ccccn3)cc21	inactive
COCCN(C(=S)Nc1cccc(C)c1C)C(C)c1ccco1 (stereo not given)	inactive
Cc1ccc(-n2c(SCC(=O)N3CCC(C(=O)O)CC3)nc3ccccc3c2=O)cc1C	inconclusive [activator, full curve, poor fit]
COc1cccc(C(=O)C2CCCN(C/C=C/c3ccccc3OC)C2)c1 (stereo not given)	inactive
c1ccc(CSc2ccc(-c3ccccn3)nn2)cc1	inconclusive [activator, partial curve, poor fit]
CC(=O)Nc1c(O)nc(SCC(=O)Nc2ccc(C(C)=O)cc2)[nH]c1=O	inconclusive [activator, partial curve, poor fit]
CCN(CC)C(=O)Oc1ccc2c(=O)c(-c3ccccc3)coc2c1	inconclusive [activator, partial curve, poor fit]
COc1ccc(C(=O)Nc2ccc(Cl)c(Cl)c2)c(OC)n1	inconclusive [activator, partial curve, poor fit]
COC(=O)CN1C(=S)N(Cc2ccccc2)C(=O)C1CC(=O)Nc1ccc(OC)cc1 (stereo not given)	inactive
COc1ccc(OC)c(C(=O)N(C[C@H]2CC[C@@H]([C@@H]3CC[C@H](CO)O3)O2)C(C(=O)NC(C)(C)C)c2ccc(-c3ccccc3)cc2)c1 (stereo not given in full)	inactive
CCOc1ccc2nc(N3CCCCCC3)sc2c1	inconclusive [activator, full curve, poor fit]
CCn1c(SCC(=O)c2cccs2)nnc1-c1cccs1	inconclusive [activator, full curve, poor fit]
O=C(c1coc2ccc(O)cc12)C1CC1	inconclusive [activator, partial curve, poor fit]
COC(=O)/C=C1\S/C(=N/N=C/c2ccco2)NC1=O	inactive
CCC(C)(C)NC(=O)Cn1c(=O)oc2cc(S(=O)(=O)N3CC(C)CC(C)C3)ccc21 (stereo not given)	inactive
Cc1nn(Cc2ccccc2Cl)c(Cl)c1C(=O)NCCc1ccccc1	inconclusive [activator, partial curve, poor fit]
O=C(NC12CC3CC(CC(C3)C1)C2)c1ccc(-c2ccccc2Cl)o1	inconclusive [activator, full curve, poor fit]
COC(=O)[C@H](C)NC(=O)Nc1ccccc1C(F)(F)F	inactive
O=C(O)COc1ccccc1C=NNC(=O)c1ccc(NS(=O)(=O)c2cccs2)cc1	inconclusive [activator, partial curve, poor fit]
